# Laboratory results reported in PubChem BioAssay AID485344 (National Center for Advancing Translational Sciences (NCATS), 2010).
# Hit rate of the full screen: of about 340,000 compounds, about 6,900 (2%) were called active. Cut-off read from the data, not from the text of the source: active = inhibition above about 30%; inactive = below that, where a call was filed. The list shows a part of the results, in another mix than the full data. Entries without a call were filed so in the source.
# Target: D(2) dopamine receptor (Homo sapiens) (UniProt P14416)
# Chain of UniProt P14416 (P14416 whole entry, looked up): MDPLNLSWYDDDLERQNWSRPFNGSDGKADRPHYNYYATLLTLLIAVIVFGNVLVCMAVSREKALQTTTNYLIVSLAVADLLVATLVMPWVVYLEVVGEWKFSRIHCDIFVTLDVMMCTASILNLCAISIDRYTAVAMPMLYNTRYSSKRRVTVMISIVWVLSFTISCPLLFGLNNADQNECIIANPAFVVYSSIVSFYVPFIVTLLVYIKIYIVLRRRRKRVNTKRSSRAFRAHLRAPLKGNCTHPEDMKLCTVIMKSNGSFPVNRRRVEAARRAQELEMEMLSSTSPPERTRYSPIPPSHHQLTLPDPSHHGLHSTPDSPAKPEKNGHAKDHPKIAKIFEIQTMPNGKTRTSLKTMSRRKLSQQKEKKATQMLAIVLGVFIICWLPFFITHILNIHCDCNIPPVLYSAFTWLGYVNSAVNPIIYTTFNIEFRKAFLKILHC
# Assay: HTS Assay for Allosteric Antagonists of the Human D2 Dopamine Receptor: Primary Screen for Antagonists; note: 0% is about no effect
# Settings: HEK293 TREx D2 cells, calcium flux, dopamine EC80; at 10 µM; stronger effect = higher value
# How it was run: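 Inhibition of EC80 dopamine-driven calcium flux, recorded kinetically, defines activity here; cells are a tetracycline-induced HEK293 T-REx line expressing force-coupled D2.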
row,SMILES,inhibition
1,COc1ccc(C(=O)CC2(O)C(=O)Nc3c(C)cccc32)c(OC)c1OC (stereo unspecified),-13.6%
2,CCOc1ccc(-n2c(SCC(=O)Nc3cccc(Cl)c3)nc3c(oc4ccccc43)c2=O)cc1,8.48%
3,CCOc1ccc(-c2cnc(NCc3ccc(C(F)(F)F)cc3)n2C)cc1,10.6%
4,CN1CCN(c2ncc3c(n2)CCN(Cc2cc(Br)cs2)C3)CC1,-6.5%
5,COc1ccc(S(=O)(=O)NCCc2sc(C)nc2C)cc1F,2.11%
6,Cn1c(=O)n(C/C=C/c2ccccc2)c(=O)c2c1nc1n2CCN1c1ccc(F)cc1,24.9%
7,Cc1ccc(C(=O)Nc2ccccc2)cc1S(=O)(=O)N1CCN(C)CC1,active: 35.1%
8,Cc1cccc(OCCCCn2c(C3CC(=O)N(c4ccccc4Cl)C3)nc3ccccc32)c1 (stereo unspecified),2.22%
9,Cc1ccc(-c2nc3cc(NC(=O)c4cc5ccccc5o4)ccc3o2)cc1,-1.11%
10,CC(=O)Nc1ccc(Oc2sc(C(=O)c3ccccc3)c(N)c2C#N)cc1,active: 31.5%
11,O=C(Nc1cc(F)ccc1F)N1CCC(CN2CCOCC2)CC1,-2.32%
12,COc1ccc(-n2cc(-c3ccccc3)c3c(NC4CCCCC4)ncnc32)cc1,12.5%
13,CCN1CCCC1CNC(=O)c1[nH]c2ccc(OC)cc2c1C (stereo unspecified),active: 40.1%
14,O=C(NC1CCN(Cc2ccccc2)CC1)c1cccc(S(=O)(=O)Nc2ccc(F)cc2)c1,active: 45.3%
15,CN(C)c1ccc(CNC(=O)C2CCCN(S(=O)(=O)c3ccc4c(c3)oc(=O)n4C)C2)cc1 (stereo unspecified),6.14%
16,CCc1nonc1NC(=O)c1oc2ccc(F)cc2c1C,2.03%
17,CCCCC[n+]1ccn(-c2nc3ccccc3nc2[N-]S(=O)(=O)c2ccc(C)cc2)c1,active: 37.7%
18,CC1=C(C(=O)Nc2ccc(Cl)cc2)C(c2ccccc2C)n2ncc(C(=O)Nc3ccc(C)cc3)c2N1 (stereo unspecified),-3.35%
19,COc1ccc(CCNC(=O)C(=O)NCC(c2ccc3c(c2)OCO3)N2CCOCC2)cc1 (stereo unspecified),8.79%
20,COc1ccc(OC)c(-c2nc3c(C#N)c[nH]n3c2NC2CCCCC2)c1,-0.641%
21,CN(C)c1ccc(CN(CC2CCCO2)C(=O)COc2ccccc2Cl)cc1 (stereo unspecified),-13.6%
22,COc1ccccc1CNC(=O)Cc1c(C)c2c(cc(C)c3c(C)coc32)oc1=O,6.88%
23,COc1ccc(N(CC(=O)NCc2ccc(F)cc2)S(=O)(=O)c2c(C)noc2C)cc1,2.15%
24,COc1ccc(C(=O)NCCc2cnc[nH]2)cc1OC,active: 34.9%

row,SMILES,inhibition
1,N#Cc1ccc(-c2cccs2)nc1SCc1c(F)cccc1Cl,-4.99%
2,Cc1ccccc1C(=O)N(Cc1ccc(N(C)C)cc1)Cc1ccco1,13.7%
3,COc1ccc(N2CCN(C(=O)CSc3n[nH]c(-c4ccccc4)n3)CC2)cc1,-2.58%
4,COCCCNS(=O)(=O)c1cc(-c2onc(C)c2C)ccc1OC,-0.137%
5,Cc1c(C(=O)NCc2ccccc2)c(-c2ccccc2)nn1-c1ccccc1,active: 35.9%
6,COc1ccc(-c2noc(CCC(=O)N(C)c3ccccc3C)n2)cc1,-3.09%
7,CN(C)C(=O)c1ccc(NC(=O)Cn2nnnc2-c2ccccc2F)cc1,-8.4%
8,COc1ccc(Nc2c3c(nc4ccc(NC(=O)/C=C/c5cc(OC)c(OC)c(OC)c5)cc24)CCCC3)cc1OC,-8.05%
9,O=C(Nc1ccc(-c2nc3cc(NC(=O)c4ccccc4Cl)ccc3o2)cc1)c1ccccc1Cl,-9.95%
10,O=C(CCc1nc2cccnc2n1Cc1cccs1)Nc1cccc(C(F)(F)F)c1,4.93%
11,NC(=O)c1ccccc1NC(=O)C1CCCN(c2ncnc3onc(-c4ccc(F)cc4)c23)C1 (stereo unspecified),12%
12,O=C(NN1CCN(Cc2ccccc2)CC1)c1ccc(Cl)cc1,active: 67.1%
13,O=C(c1ccc(C(F)(F)F)cc1)N1CCC(c2noc(-c3ccc(S(=O)(=O)N4CCCC4)cc3)n2)CC1,18%
14,OC(C#CCN1CCCCCC1)(c1ccccc1)c1cccnc1 (stereo unspecified),active: 58.3%
15,Cc1ccc(NC(=O)CN2C(=O)CCc3cc(S(=O)(=O)N4CCOCC4)ccc32)cc1N(C)C,19.5%
16,COCCN=c1scc(-c2ccco2)n1/N=C/c1ccc(O)c(O)c1O,active: 76.9%
17,O=C(NC1CCCC1)c1ccc2c(c1)N(Cc1ccc(C(F)(F)F)cc1)C(=O)c1ccccc1S2,-2.7%
18,Cc1ccccc1Cn1c(=O)n(Cc2ccc3c(c2)OCO3)c(=O)c2oc3ccccc3c21,-4.36%
19,CCCN1CCC(NC(=O)Nc2cc(Cl)ccc2OC)CC1,active: 84.9%
20,COc1ccc(NC(=O)Cn2c(C)c3cnn(-c4ccccc4)c(=O)c3c2C)c(OC)c1,8%
21,Cc1ccc(N(CC(=O)NC(C)c2ccccc2)S(=O)(=O)c2c(C)noc2C)cc1 (stereo unspecified),18.5%
22,Cc1cccc(-c2noc(C3CC(=O)N(c4ccc5c(c4)OCCO5)C3)n2)c1 (stereo unspecified),-6.93%
23,CCOc1ccc(C2c3c(-c4ccccc4O)n[nH]c3C(=O)N2Cc2ccncc2)cc1 (stereo unspecified),9%
24,CCc1ccc(C(=O)c2cn(CC(=O)Nc3ccc(F)cc3)c3cc4c(cc3c2=O)OCO4)cc1,14.8%

row,SMILES,inhibition
1,Cc1cc(OCC(=O)Nc2sc3c(c2C(N)=O)CCCC3)ccc1C(C)C,15.5%
2,COc1ccc(-c2nc(SCC(=O)NCCCc3ccccc3)n[nH]2)cc1,7.65%
3,Cc1ccc2occ(CC(=O)Nc3ccc(S(N)(=O)=O)cc3)c2c1,-7.2%
4,CCN(CC)CCCNC(=O)c1oc2c(c1C)-c1nn(Cc3ccc(Cl)cc3)cc1CC2,14.9%
5,COc1ccc(NC(=O)CCc2c(C)nn(-c3ccc(N4CCOCC4)nn3)c2C)cc1Cl,-0.0244%
6,OCC1(Cc2cccc(F)c2)CCN(Cc2ccc3cccc(F)c3n2)CC1,active: 39.9%
7,CC(C)(C)c1ccc(C(=O)Nc2ccccc2C(=O)OCc2cc(=O)n3ccsc3n2)cc1,12.7%
8,Cc1ccc(CN2CCN(C3CCN(C(=O)OC(C)(C)C)CC3)C(=O)C2=O)cc1,0.323%
9,CCOC(=O)CC(NC(=O)Cn1nnc(-c2ccccc2C)n1)c1ccc(OC)cc1 (stereo unspecified),2.46%
10,Cc1cc2nc3c(=O)n(C)c(=O)n(C)c3nc2cc1N=CN(C)C,-8.42%
11,CCC(=O)N1CCc2cc(Br)cc(S(=O)(=O)CCC(=O)Nc3ccccc3C)c21,-5.22%
12,CC(C)C(=O)NCc1cc(-c2ccc(Cl)cc2)no1,active: 41.7%
13,Cc1cc(C)c2c(=O)cc(CSCC(=O)Nc3nnc(C)s3)[nH]c2c1,-3.67%
14,CCOC(=O)C1C(=O)Nc2nc(C)nn2C1c1ccccc1 (stereo unspecified),active: 41.9%
15,CCCNC(=O)Nc1cc(C(=O)NCc2cccc(OCC)c2)ccc1N1CCCC1,10.2%
16,COc1ccc(N(C)C(=O)NCc2noc3ccc(C)cc23)c(OC)c1,-6.63%
17,COc1ccc(C(=O)CCC(=O)Nc2ccccc2C)cc1,-10.5%
18,CC(C)(C)C1CCc2nc(NC(=O)Cc3ccc(Cl)cc3)sc2C1 (stereo unspecified),0.468%
19,CCC(Sc1nncn2c1cc1sccc12)C(=O)Nc1cccc(OC)c1 (stereo unspecified),-8.57%
20,Cc1cccc(NC(=O)C2CCCN(S(=O)(=O)c3c(C)noc3/C=C/N(C)C)C2)c1C (stereo unspecified),12%
21,O=C(Nc1ccc(F)c(F)c1)C1CCCN(S(=O)(=O)c2cccc3nonc23)C1 (stereo unspecified),20.4%
22,Cc1ccc(C)c(N2CCN(C(=O)CN3C(=O)CSc4c3c(C)nn4-c3ccccc3)CC2)c1,3.91%
23,CCN(CC)CCCCN1c2ccccc2Sc2ccccc21,active: 47.1%
24,CN(C(=O)CSc1nnc2[nH]c(=O)cc(-c3ccccc3)n12)c1ccccc1,-10.1%

row,SMILES,inhibition
1,Cc1ccc(C)c(NC(=O)CCNS(=O)(=O)c2ccc3c(c2)CCCC(=O)N3)c1,3.14%
2,COCCNC(=O)c1ccc2c(c1)N(Cc1cccc(Cl)c1)C(=O)c1ccccc1S2=O (stereo unspecified),2.75%
3,CCOC(=O)c1cc(-c2ccccc2)n(CC(=O)NCc2ccccc2OC)c1C,-14.5%
4,Fc1ccc(CNc2ncnc3c2c(-c2ccccc2)cn3-c2ccccc2)cc1,2.24%
5,Cn1c(=O)n(C)c2cc(S(=O)(=O)Nc3ccccc3C(=O)O)ccc21,12%
6,CCOc1ccccc1NS(=O)(=O)c1c(-c2ccc(C)cc2)csc1C(=O)OC,4.49%
7,Cc1c2cnn(-c3ccccc3)c(=O)c2c(C)n1CCCC(=O)Nc1ccc(F)cc1F,-7.6%
8,NC(=O)c1cc(S(=O)(=O)NCC2CCC(C(=O)Nc3cccc(Cl)c3)CC2)cs1 (stereo unspecified),-2.94%
9,Cc1c(Cl)cccc1NC(=O)CCS(=O)(=O)c1ccc(Br)s1,28.2%
10,CC(C)(C)C1CCc2onc(C(=O)Nc3sc4c(c3C(N)=O)CCCC4)c2C1 (stereo unspecified),3.1%
11,CCOC(=O)c1cc(-c2ccccc2)n(CCCC(=O)Nc2ccc(CC)cc2)c1C,11.5%
12,O=C(c1ccc2c(Cl)c3c(nc2c1)CCCC3)N1CCN(c2ccccc2)CC1,1.21%
13,CCCc1nnc(NC(=O)c2nc(S(=O)(=O)Cc3ccc(C)cc3)ncc2Cl)s1,-6.72%
14,Cc1ccc(NC(=O)CSc2nc3ccccc3c3nc(CCn4c(C)nc5ccccc54)nn23)cc1F,-8.9%
15,Cc1ccc2nc(-c3ccccn3)c(Nc3ccc(F)cc3)n2c1,-20.3%
16,CCC(C)NC(=O)c1ccc2c(c1)N(Cc1ccccc1)C(=O)c1ccccc1S2(=O)=O (stereo unspecified),-1.82%
17,CN1CCN(CCCNC(=O)c2cnn(-c3ccccc3)c2C2CCN(C(=O)OC(C)(C)C)CC2)CC1,0.776%
18,CCC(Oc1ccccc1)C(=O)Nc1ccccc1OCc1cc(=O)n2ccccc2n1 (stereo unspecified),21%
19,O=C(CCN1CCN(c2ccc([N+](=O)[O-])cc2)CC1)c1ccc(Cl)cc1,active: 33.8%
20,CC1=C(C(=O)Nc2ccc(Cl)cc2)C(C(C)C)n2nc(SCc3cccc(C)c3)nc2N1 (stereo unspecified),4.12%
21,Cc1cccc(CNC(=O)c2cnc3sc(N4CCCCC4)nn3c2=O)c1,-4.71%
22,CCc1nn(CC(=O)Nc2cccc(C)c2C)c(=O)c2cc3sccc3n12,2.65%
23,Cc1ccc(CCNC(=O)C2CCCN(Cc3nc(-c4cccc(Cl)c4)oc3C)C2)cc1 (stereo unspecified),-4.16%
24,COc1ccccc1N1CCN(CC(=O)Nc2c(C)n[nH]c2C)CC1,active: 53.4%
